Measurements taken from the supplement of paper PMC8728848.
This is one part of the list.

Assays:
Assay in all cases: glycan array binding signal (z-score within array); higher = stronger binding
Conditions in all cases: glycan notation: IUPAC condensed, linker removed
Gal(a1-3)Gal = molecular target: Gal(a1-3)Gal
Procedure, shortened: (§1)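 The binding signal is a Z-score computed within each array. Data were drawn from 3228 arrays in the Consortium for Functional Glycomics database, restricted to those with a known protein sequence. Scores were averaged over arrays of the same protein sequence at different concentrations or buffers, and over linkers, and negative values can be taken as non-binding.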

Gal(a1-3)Gal(b1-3)GlcNAc = molecular target: Gal(a1-3)Gal(b1-3)GlcNAc
Procedure, shortened: as §1

[1] = molecular target: Gal(a1-3)Gal(b1-3)GlcNAc(b1-2)Man(a1-3)[Gal(a1-3)Gal(b1-3)GlcNAc(b1-2)Man(a1-6)]Man(b1-4)GlcNAc(b1-4)GlcNAc
Procedure, shortened: as §1

[2] = molecular target: Gal(a1-3)Gal(b1-3)GlcNAc(b1-3)GalNAc
Procedure, shortened: as §1

[3] = molecular target: Gal(a1-3)Gal(b1-3)[Fuc(a1-4)]GlcNAc(b1-2)Man(a1-3)[Gal(a1-3)Gal(b1-3)[Fuc(a1-4)]GlcNAc(b1-2)Man(a1-6)]Man(b1-4)GlcNAc(b1-4)GlcNAc
Procedure, shortened: as §1

Gal(a1-3)Gal(b1-4)Glc = molecular target: Gal(a1-3)Gal(b1-4)Glc
Procedure, shortened: as §1

Gal(a1-3)Gal(b1-4)GlcNAc = molecular target: Gal(a1-3)Gal(b1-4)GlcNAc
Procedure, shortened: as §1

[4] = molecular target: Gal(a1-3)Gal(b1-4)GlcNAc(b1-3)GalNAc
Procedure, shortened: as §1

[5] = molecular target: Gal(a1-3)Gal(b1-4)[Fuc(a1-3)]GlcNAc
Procedure, shortened: as §1

[6] = molecular target: Gal(a1-3)Gal(b1-4)[Fuc(a1-3)]GlcNAc(b1-2)Man(a1-3)[Gal(a1-3)Gal(b1-4)[Fuc(a1-3)]GlcNAc(b1-2)Man(a1-6)]Man(b1-4)GlcNAc(b1-4)GlcNAc
Procedure, shortened: as §1

Gal(a1-3)GalNAc = molecular target: Gal(a1-3)GalNAc
Procedure, shortened: as §1

[7] = molecular target: Gal(a1-3)[Gal(a1-4)]Gal(b1-4)GlcNAc
Procedure, shortened: as §1

[8] = molecular target: Gal(a1-4)Gal(b1-3)GlcNAc(b1-2)Man(a1-3)[Gal(a1-4)Gal(b1-3)GlcNAc(b1-2)Man(a1-6)]Man(b1-4)GlcNAc(b1-4)GlcNAc
Procedure, shortened: as §1

Gal(a1-4)Gal(b1-4)Glc = molecular target: Gal(a1-4)Gal(b1-4)Glc
Procedure, shortened: as §1

Gal(a1-4)Gal(b1-4)GlcNAc = molecular target: Gal(a1-4)Gal(b1-4)GlcNAc
Procedure, shortened: as §1

[9] = molecular target: Gal(a1-4)Gal(b1-4)GlcNAc(b1-2)Man(a1-3)[Gal(a1-4)Gal(b1-4)GlcNAc(b1-2)Man(a1-6)]Man(b1-4)GlcNAc(b1-4)GlcNAc
Procedure, shortened: as §1

[10] = molecular target: Gal(a1-4)Gal(b1-4)GlcNAc(b1-3)Gal(b1-4)Glc
Procedure, shortened: as §1

Gal(a1-4)GlcNAc = molecular target: Gal(a1-4)GlcNAc
Procedure, shortened: as §1

Gal(a1-6)Glc = molecular target: Gal(a1-6)Glc
Procedure, shortened: as §1

Gal(b1-2)Gal = molecular target: Gal(b1-2)Gal
Procedure, shortened: as §1

Gal(b1-3)Gal = molecular target: Gal(b1-3)Gal
Procedure, shortened: as §1

Gal(b1-3)Gal(b1-4)GlcNAc = molecular target: Gal(b1-3)Gal(b1-4)GlcNAc
Procedure, shortened: as §1

[11] = molecular target: Gal(b1-3)Gal(b1-4)GlcNAc(b1-2)Man(a1-3)[Gal(b1-3)Gal(b1-4)GlcNAc(b1-2)Man(a1-6)]Man(b1-4)GlcNAc(b1-4)GlcNAc
Procedure, shortened: as §1

Gal(b1-3)GalNAc = molecular target: Gal(b1-3)GalNAc
Procedure, shortened: as §1

[12] = molecular target: Gal(b1-3)GalNAc(a1-3)[Fuc(a1-2)]Gal(b1-4)Glc
Procedure, shortened: as §1

[13] = molecular target: Gal(b1-3)GalNAc(a1-3)[Fuc(a1-2)]Gal(b1-4)GlcNAc
Procedure, shortened: as §1

[14] = molecular target: Gal(b1-3)GalNAc(b1-3)Gal(a1-4)Gal(b1-4)Glc
Procedure, shortened: as §1

[15] = molecular target: Gal(b1-3)GalNAc(b1-4)Gal(b1-4)Glc
Procedure, shortened: as §1

[16] = molecular target: Gal(b1-3)GalNAc(b1-4)[Neu5Ac(a2-3)]Gal(b1-4)Glc
Procedure, shortened: as §1

Gal(b1-3)GlcNAc = molecular target: Gal(b1-3)GlcNAc
Procedure, shortened: as §1

[17] = molecular target: Gal(b1-3)GlcNAc(a1-6)Gal(b1-4)GlcNAc
Procedure, shortened: as §1

[18] = molecular target: Gal(b1-3)GlcNAc(b1-2)Man(a1-3)[Gal(b1-3)GlcNAc(b1-2)Man(a1-6)]Man(b1-4)GlcNAc(b1-4)GlcNAc
Procedure, shortened: as §1

[19] = molecular target: Gal(b1-3)GlcNAc(b1-2)Man(a1-3)[Gal(b1-3)GlcNAc(b1-2)Man(a1-6)]Man(b1-4)GlcNAc(b1-4)[Fuc(a1-6)]GlcNAc
Procedure, shortened: as §1

[20] = molecular target: Gal(b1-3)GlcNAc(b1-2)[Gal(b1-3)GlcNAc(b1-6)]Man(a1-6)[Gal(b1-3)GlcNAc(b1-2)Man(a1-3)]Man(b1-4)GlcNAc(b1-4)GlcNAc
Procedure, shortened: as §1

[21] = molecular target: Gal(b1-3)GlcNAc(b1-3)Gal(b1-3)GlcNAc
Procedure, shortened: as §1

[22] = molecular target: Gal(b1-3)GlcNAc(b1-3)Gal(b1-4)Glc
Procedure, shortened: as §1

[23] = molecular target: Gal(b1-3)GlcNAc(b1-3)Gal(b1-4)GlcNAc
Procedure, shortened: as §1

[24] = molecular target: Gal(b1-3)GlcNAc(b1-3)Gal(b1-4)GlcNAc(b1-6)[Gal(b1-3)GlcNAc(b1-3)]Gal(b1-4)Glc
Procedure, shortened: as §1

[25] = molecular target: Gal(b1-3)GlcNAc(b1-3)Gal(b1-4)[Fuc(a1-3)]GlcNAc(b1-6)[Gal(b1-3)GlcNAc(b1-3)]Gal(b1-4)Glc
Procedure, shortened: as §1

[26] = molecular target: Gal(b1-3)GlcNAc(b1-3)GalNAc
Procedure, shortened: as §1

[27] = molecular target: Gal(b1-3)GlcNAc(b1-6)Gal(b1-4)GlcNAc
Procedure, shortened: as §1

[28] = molecular target: Gal(b1-3)[Fuc(a1-4)]GlcNAc
Procedure, shortened: as §1

[29] = molecular target: Gal(b1-3)[Fuc(a1-4)]GlcNAc(b1-2)Man(a1-3)[Gal(b1-3)[Fuc(a1-4)]GlcNAc(b1-2)Man(a1-6)]Man(b1-4)GlcNAc(b1-4)GlcNAc
Procedure, shortened: as §1

[30] = molecular target: Gal(b1-3)[Fuc(a1-4)]GlcNAc(b1-2)Man(a1-3)[Gal(b1-3)[Fuc(a1-4)]GlcNAc(b1-2)Man(a1-6)]Man(b1-4)GlcNAc(b1-4)[Fuc(a1-6)]GlcNAc
Procedure, shortened: as §1

[31] = molecular target: Gal(b1-3)[Fuc(a1-4)]GlcNAc(b1-3)Gal(b1-3)[Fuc(a1-4)]GlcNAc
Procedure, shortened: as §1

B1: CV-2L (Chromobacterium violaceum), Q7NX84 (protein)
chain: MAQQGVFTLPARINFGVTVLVNSAATQHVEIFVDNEPRAAFSGVGTGDNNLGTKVINSGSGNVRVQITANGRQSDLVSSQLVLANKLNLAVVGSEDGTDMDYNDSIVILNWPLG
glycan array binding signal (z-score) (Gal(a1-3)Gal): -0.355 | glycan array binding signal (z-score) (Gal(a1-3)Gal(b1-3)GlcNAc): -0.342 | glycan array binding signal (z-score) [1]: -0.237 | glycan array binding signal (z-score) [2]: -0.335 | glycan array binding signal (z-score) [3]: -0.265 | glycan array binding signal (z-score) (Gal(a1-3)Gal(b1-4)Glc): -0.325 | glycan array binding signal (z-score) (Gal(a1-3)Gal(b1-4)GlcNAc): -0.346 | glycan array binding signal (z-score) [4]: -0.341 | glycan array binding signal (z-score) [5]: -0.297 | glycan array binding signal (z-score) [6]: -0.319 | glycan array binding signal (z-score) (Gal(a1-3)GalNAc): -0.347 | glycan array binding signal (z-score) [7]: -0.336 | glycan array binding signal (z-score) [8]: -0.307 | glycan array binding signal (z-score) (Gal(a1-4)Gal(b1-4)Glc): -0.345 | glycan array binding signal (z-score) (Gal(a1-4)Gal(b1-4)GlcNAc): -0.338 | glycan array binding signal (z-score) [9]: -0.346 | glycan array binding signal (z-score) [10]: -0.35 | glycan array binding signal (z-score) (Gal(a1-4)GlcNAc): -0.329 | glycan array binding signal (z-score) (Gal(a1-6)Glc): -0.347 | glycan array binding signal (z-score) (Gal(b1-2)Gal): -0.339 | glycan array binding signal (z-score) (Gal(b1-3)Gal): -0.348 | glycan array binding signal (z-score) (Gal(b1-3)Gal(b1-4)GlcNAc): -0.349 | glycan array binding signal (z-score) [11]: -0.355 | glycan array binding signal (z-score) (Gal(b1-3)GalNAc): -0.341 | glycan array binding signal (z-score) [12]: -0.341 | glycan array binding signal (z-score) [13]: -0.321 | glycan array binding signal (z-score) [14]: -0.343 | glycan array binding signal (z-score) [15]: -0.343 | glycan array binding signal (z-score) [16]: -0.272 | glycan array binding signal (z-score) (Gal(b1-3)GlcNAc): -0.34 | glycan array binding signal (z-score) [17]: -0.345 | glycan array binding signal (z-score) [18]: -0.294 | glycan array binding signal (z-score) [19]: -0.293 | glycan array binding signal (z-score) [20]: -0.26 | glycan array binding signal (z-score) [21]: -0.322 | glycan array binding signal (z-score) [22]: -0.304 | glycan array binding signal (z-score) [23]: -0.347 | glycan array binding signal (z-score) [24]: -0.321 | glycan array binding signal (z-score) [25]: -0.237 | glycan array binding signal (z-score) [26]: -0.337 | glycan array binding signal (z-score) [27]: -0.32 | glycan array binding signal (z-score) [28]: 0.602 | glycan array binding signal (z-score) [29]: -0.346 | glycan array binding signal (z-score) [30]: -0.078 | glycan array binding signal (z-score) [31]: 0.794
